# Some of the results follow.
# B1: ASAL (Allium sativum), P83886 (protein)
# chain: MGRTTSSPKAMMRIATVAAILTILASTCMARNVLTNGEGLYAGQSLDVEQYKFIMQDDCNLVLYEYSTPIWASNTGVTGKNGCRAVMQRDGNFVVYDVNGRPVWASNSVRGNGNYILVLQKDRNVVIYGSDIWSTGTYRRSVGGAVVMAMNGTVDGGSVIGPVVVNQNVTAAIRKVGTGAA
# Assays:
# Assay in all cases: glycan array binding signal (z-score within array); higher = stronger binding
# Details in all cases: glycan notation: IUPAC condensed, linker removed
# [1] = biological target: Gal(a1-3)Gal(b1-4)[Fuc(a1-3)]GlcNAc
# In short: (§1)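 Glycan array binding is given as a within-array Z-score, which can be read as non-binding when negative. The arrays, 3228 of them, came from the Consortium for Functional Glycomics database and were retained only where the protein sequence was available. Z-scores were averaged across arrays of the same protein sequence at different concentrations or buffers and across linkers.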
# [2] = biological target: Gal(a1-3)Gal(b1-4)[Fuc(a1-3)]GlcNAc(b1-2)Man(a1-3)[Gal(a1-3)Gal(b1-4)[Fuc(a1-3)]GlcNAc(b1-2)Man(a1-6)]Man(b1-4)GlcNAc(b1-4)GlcNAc
# In short: as §1
# Gal(a1-3)GalNAc = biological target: Gal(a1-3)GalNAc
# In short: as §1
# [3] = biological target: Gal(a1-3)[Gal(a1-4)]Gal(b1-4)GlcNAc
# In short: as §1
# [4] = biological target: Gal(a1-4)Gal(b1-3)GlcNAc(b1-2)Man(a1-3)[Gal(a1-4)Gal(b1-3)GlcNAc(b1-2)Man(a1-6)]Man(b1-4)GlcNAc(b1-4)GlcNAc
# In short: as §1
# Gal(a1-4)Gal(b1-4)Glc = biological target: Gal(a1-4)Gal(b1-4)Glc
# In short: as §1
# Gal(a1-4)Gal(b1-4)GlcNAc = biological target: Gal(a1-4)Gal(b1-4)GlcNAc
# In short: as §1
# [5] = biological target: Gal(a1-4)Gal(b1-4)GlcNAc(b1-2)Man(a1-3)[Gal(a1-4)Gal(b1-4)GlcNAc(b1-2)Man(a1-6)]Man(b1-4)GlcNAc(b1-4)GlcNAc
# In short: as §1
# [6] = biological target: Gal(a1-4)Gal(b1-4)GlcNAc(b1-3)Gal(b1-4)Glc
# In short: as §1
# Gal(a1-4)GlcNAc = biological target: Gal(a1-4)GlcNAc
# In short: as §1
# Gal(a1-6)Glc = biological target: Gal(a1-6)Glc
# In short: as §1
# Gal(b1-2)Gal = biological target: Gal(b1-2)Gal
# In short: as §1
# Gal(b1-3)Gal = biological target: Gal(b1-3)Gal
# In short: as §1
# Gal(b1-3)Gal(b1-4)GlcNAc = biological target: Gal(b1-3)Gal(b1-4)GlcNAc
# In short: as §1
# [7] = biological target: Gal(b1-3)Gal(b1-4)GlcNAc(b1-2)Man(a1-3)[Gal(b1-3)Gal(b1-4)GlcNAc(b1-2)Man(a1-6)]Man(b1-4)GlcNAc(b1-4)GlcNAc
# In short: as §1
# Gal(b1-3)GalNAc = biological target: Gal(b1-3)GalNAc
# In short: as §1
# [8] = biological target: Gal(b1-3)GalNAc(a1-3)[Fuc(a1-2)]Gal(b1-4)Glc
# In short: as §1
# [9] = biological target: Gal(b1-3)GalNAc(a1-3)[Fuc(a1-2)]Gal(b1-4)GlcNAc
# In short: as §1
# [10] = biological target: Gal(b1-3)GalNAc(b1-3)Gal(a1-4)Gal(b1-4)Glc
# In short: as §1
# [11] = biological target: Gal(b1-3)GalNAc(b1-4)Gal(b1-4)Glc
# In short: as §1
# [12] = biological target: Gal(b1-3)GalNAc(b1-4)[Neu5Ac(a2-3)]Gal(b1-4)Glc
# In short: as §1
# Gal(b1-3)GlcNAc = biological target: Gal(b1-3)GlcNAc
# In short: as §1
# [13] = biological target: Gal(b1-3)GlcNAc(a1-6)Gal(b1-4)GlcNAc
# In short: as §1
# [14] = biological target: Gal(b1-3)GlcNAc(b1-2)Man(a1-3)[Gal(b1-3)GlcNAc(b1-2)Man(a1-6)]Man(b1-4)GlcNAc(b1-4)GlcNAc
# In short: as §1
# [15] = biological target: Gal(b1-3)GlcNAc(b1-2)Man(a1-3)[Gal(b1-3)GlcNAc(b1-2)Man(a1-6)]Man(b1-4)GlcNAc(b1-4)[Fuc(a1-6)]GlcNAc
# In short: as §1
# [16] = biological target: Gal(b1-3)GlcNAc(b1-2)[Gal(b1-3)GlcNAc(b1-6)]Man(a1-6)[Gal(b1-3)GlcNAc(b1-2)Man(a1-3)]Man(b1-4)GlcNAc(b1-4)GlcNAc
# In short: as §1
# [17] = biological target: Gal(b1-3)GlcNAc(b1-3)Gal(b1-3)GlcNAc
# In short: as §1
# [18] = biological target: Gal(b1-3)GlcNAc(b1-3)Gal(b1-4)Glc
# In short: as §1
# [19] = biological target: Gal(b1-3)GlcNAc(b1-3)Gal(b1-4)GlcNAc
# In short: as §1
# [20] = biological target: Gal(b1-3)GlcNAc(b1-3)Gal(b1-4)GlcNAc(b1-6)[Gal(b1-3)GlcNAc(b1-3)]Gal(b1-4)Glc
# In short: as §1
# [21] = biological target: Gal(b1-3)GlcNAc(b1-3)Gal(b1-4)[Fuc(a1-3)]GlcNAc(b1-6)[Gal(b1-3)GlcNAc(b1-3)]Gal(b1-4)Glc
# In short: as §1
# [22] = biological target: Gal(b1-3)GlcNAc(b1-3)GalNAc
# In short: as §1
# [23] = biological target: Gal(b1-3)GlcNAc(b1-6)Gal(b1-4)GlcNAc
# In short: as §1
# [24] = biological target: Gal(b1-3)[Fuc(a1-4)]GlcNAc
# In short: as §1
# [25] = biological target: Gal(b1-3)[Fuc(a1-4)]GlcNAc(b1-2)Man(a1-3)[Gal(b1-3)[Fuc(a1-4)]GlcNAc(b1-2)Man(a1-6)]Man(b1-4)GlcNAc(b1-4)GlcNAc
# In short: as §1
# [26] = biological target: Gal(b1-3)[Fuc(a1-4)]GlcNAc(b1-2)Man(a1-3)[Gal(b1-3)[Fuc(a1-4)]GlcNAc(b1-2)Man(a1-6)]Man(b1-4)GlcNAc(b1-4)[Fuc(a1-6)]GlcNAc
# In short: as §1
# [27] = biological target: Gal(b1-3)[Fuc(a1-4)]GlcNAc(b1-3)Gal(b1-3)[Fuc(a1-4)]GlcNAc
# In short: as §1
# [28] = biological target: Gal(b1-3)[Fuc(a1-4)]GlcNAc(b1-3)Gal(b1-4)GlcNAc
# In short: as §1
# [29] = biological target: Gal(b1-3)[Fuc(a1-4)]GlcNAc(b1-3)Gal(b1-4)[Fuc(a1-3)]GlcNAc
# In short: as §1
# [30] = biological target: Gal(b1-3)[GlcNAc(b1-6)]GalNAc
# In short: as §1
# [31] = biological target: Gal(b1-3)[Neu5Ac(a2-6)]GalNAc
# In short: as §1
# [32] = biological target: Gal(b1-3)[Neu5Ac(a2-6)]GlcNAc(b1-6)Gal(b1-4)Glc
# In short: as §1
# [33] = biological target: Gal(b1-3)[Neu5Ac(b2-6)]GalNAc
# In short: as §1
# Gal(b1-4)Gal = biological target: Gal(b1-4)Gal
# In short: as §1
# [34] = biological target: Gal(b1-4)GalNAc(a1-3)[Fuc(a1-2)]Gal(b1-4)GlcNAc
# In short: as §1
binder,measurement,setting,value
B1,glycan array binding signal (z-score),[1],-0.146
same,glycan array binding signal (z-score),[2],-0.115
same,glycan array binding signal (z-score),Gal(a1-3)GalNAc,-0.243
same,glycan array binding signal (z-score),[3],-0.174
same,glycan array binding signal (z-score),[4],-0.169
same,glycan array binding signal (z-score),Gal(a1-4)Gal(b1-4)Glc,-0.282
same,glycan array binding signal (z-score),Gal(a1-4)Gal(b1-4)GlcNAc,-0.236
same,glycan array binding signal (z-score),[5],-0.228
same,glycan array binding signal (z-score),[6],-0.208
same,glycan array binding signal (z-score),Gal(a1-4)GlcNAc,-0.29
same,glycan array binding signal (z-score),Gal(a1-6)Glc,-0.285
same,glycan array binding signal (z-score),Gal(b1-2)Gal,-0.276
same,glycan array binding signal (z-score),Gal(b1-3)Gal,-0.153
same,glycan array binding signal (z-score),Gal(b1-3)Gal(b1-4)GlcNAc,-0.227
same,glycan array binding signal (z-score),[7],-0.158
same,glycan array binding signal (z-score),Gal(b1-3)GalNAc,-0.28
same,glycan array binding signal (z-score),[8],-0.229
same,glycan array binding signal (z-score),[9],-0.248
same,glycan array binding signal (z-score),[10],-0.239
same,glycan array binding signal (z-score),[11],-0.206
same,glycan array binding signal (z-score),[12],-0.297
same,glycan array binding signal (z-score),Gal(b1-3)GlcNAc,-0.266
same,glycan array binding signal (z-score),[13],-0.252
same,glycan array binding signal (z-score),[14],-0.113
same,glycan array binding signal (z-score),[15],0.374
same,glycan array binding signal (z-score),[16],-0.078
same,glycan array binding signal (z-score),[17],-0.258
same,glycan array binding signal (z-score),[18],-0.196
same,glycan array binding signal (z-score),[19],-0.285
same,glycan array binding signal (z-score),[20],-0.273
same,glycan array binding signal (z-score),[21],-0.22
same,glycan array binding signal (z-score),[22],-0.178
same,glycan array binding signal (z-score),[23],-0.197
same,glycan array binding signal (z-score),[24],-0.237
same,glycan array binding signal (z-score),[25],-0.065
same,glycan array binding signal (z-score),[26],0.767
same,glycan array binding signal (z-score),[27],-0.06
same,glycan array binding signal (z-score),[28],-0.286
same,glycan array binding signal (z-score),[29],-0.218
same,glycan array binding signal (z-score),[30],-0.267
same,glycan array binding signal (z-score),[31],-0.233
same,glycan array binding signal (z-score),[32],-0.203
same,glycan array binding signal (z-score),[33],-0.291
same,glycan array binding signal (z-score),Gal(b1-4)Gal,-0.254
same,glycan array binding signal (z-score),[34],-0.228
